# Data published in PubChem BioAssay AID686979 (National Center for Advancing Translational Sciences (NCATS), 2013).
# Where “and” joins values, the source holds several entries; their conditions need not be identical. Equal entries are not always repeated. Hit rate of the full screen: of about 420,000 compounds, about 50,000 (12%) were called active. Inconclusive means that the source gave no clear call. Such entries were picked first, then a sample of the others. Calls come from the whole dose curve; as a rule, active = well fitted inhibition curve with a large enough effect; inconclusive = small, poorly fitted or top-dose-only effect; inactive = flat fitted curve, though single readings scatter. Potencies beside an inconclusive call are fits to weak or partial responses and may not hold up.
# Experiment: qHTS for Inhibitors of human tyrosyl-DNA phosphodiesterase 1 (TDP1): qHTS in cells in presence of CPT; note: nearly all actives have a fitted effect of over 55% in size
# Details: chicken DT40 Tdp1-/-;hTDP1 cells + 20 nM CPT, ATP luminescence, 48 h; activity change, negative = growth inhibition: at 46.2 µM (top of the series) unless noted
# Procedure, shortened: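 Chicken DT40 Tdp1-/- cells complemented with human TDP1, 400 cells/well, exposed to compounds plus 20 nM camptothecin for at least 48 h at 37 C; viability read as ATP content by CellTiter-Glo luminescence.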
# % is set by controls: 0 for no effect and ±100 for the full control effect; potency is the fitted concentration of half-maximal effect; tags give direction and shape of the fitted curve.
SMILES,"activity change, negative = growth inhibition",Potency
COc1cc(/C=C(\C#N)C(=O)N2CCOCC2)ccc1OCc1ccccc1,inactive: 1.2%,
CCN(CC)S(=O)(=O)c1ccc(C)c(NC(=O)c2cc(C)oc2C)c1,,"inconclusive: 5.17 µM [inhibitor, full curve]"
CC1(C(=O)Nc2ccc3c(c2)OCO3)CCN1Cc1cccc2c1OCO2 (stereo unspecified),,"inconclusive: 23.1 µM [inhibitor, single point]"
CCOc1cc(/C=N/O)ccc1OCc1ccc([N+](=O)[O-])cc1,,"inconclusive: 29.1 µM [inhibitor, single point]"
Cc1ccc(-c2cc(-c3ccccc3O)nc(N/N=C/c3cccnc3)n2)cc1,,active: 16.4 µM
CN(CC1CCCN(CCc2ccccc2F)C1)C(=O)c1cc2ccccc2o1 (stereo unspecified),,"inconclusive: 29.1 µM [inhibitor, single point]"
COc1ccc(CN2CCSCC2)c(C)c1C,inactive: 6.65%,
CCCN1CNc2c(c(=O)[nH]c(=S)n2CCc2ccc(C)cc2)C1,,"inconclusive: 35.5 µM [inhibitor, single point]"
CC(=O)N1CCN(S(=O)(=O)c2cccc(C(=O)NNC(=O)c3ccc(Br)cc3)c2)CC1,inactive: -0.0933%,
CCN(CC)C1Oc2cc3c(cc2C(c2cccc(OC)c2O)C1C)OCO3 (stereo unspecified),,"inconclusive: 16.4 µM [inhibitor, single point]"
CC(C)CCN(C)c1ccc(/C=N/n2cnnc2)cc1,,"inconclusive: 29.1 µM [inhibitor, single point]"
O=C(O)c1ccc2c(c1Nc1ccccc1)C(=O)c1ccccc1C2=O,,"inconclusive: 23.1 µM [inhibitor, single point]"
COCCNc1c(-c2ccc(OC)cc2)nc2ccc(Cl)cn12,,"inconclusive: 20.6 µM [inhibitor, single point]"
COc1cc(NC(=O)C2Cc3ccccc3N2C(=O)c2ccccc2)cc(OC)c1 (stereo unspecified),,"inconclusive: 16.4 µM [inhibitor, single point]"
Cc1ccc(NC(=O)CN(C)CC(=O)Nc2ccccc2Oc2ccccc2)cc1,inactive: 7.59%,
Cc1ncsc1CCC(=O)N1CCCC(c2nc(-c3ccncc3)ncc2-c2ccccc2)C1 (stereo unspecified),inactive: 8.6% [at 9.04 µM],
Cc1ccc(-c2nc(CS(=O)CC(=O)NCCc3ccc(Cl)cc3)c(C)o2)cc1 (stereo unspecified),,"inconclusive: 29.1 µM [inhibitor, single point]"
CC(CNC(=O)CCCn1c(=O)c2cccn2c2ccc(F)cc21)c1ccccc1 (stereo unspecified),,"inconclusive: 23.1 µM [inhibitor, single point]"
CC(=O)Nc1cc(-c2ccc(CO)cc2)cn2c(-c3ccc(F)c(Cl)c3)cnc12,,"inconclusive: 23.1 µM [inhibitor, single point]"
Cn1c(SCC(=O)Nc2ccc3c(c2)OCCO3)nnc1-c1ccncc1,inactive: -3.1%,
CC(C)c1ccc(C(C)NCCS(=O)(=O)c2ccc(Cl)cc2)cc1 (stereo unspecified),,active: 20.6 µM
COc1ccccc1NS(=O)(=O)c1cc(NC(=O)c2[nH]c(C)c(C(C)=O)c2C)ccc1N1CCOCC1,,active: 7.31 µM
COc1ccc(N2CC(C(=O)Nc3cccnc3)CC2=O)cc1 (stereo unspecified),inactive: 15.9%,
Cc1ccccc1C(=O)N1CCC(C(=O)NN2C(=O)NC3(CCC(C)CC3)C2=O)CC1 (stereo unspecified),inactive: -14.3%,

SMILES,"activity change, negative = growth inhibition",Potency
COc1ccc(Nc2nc(NN)nc(Nc3ccc(OC)cc3)n2)cc1,,"inconclusive: 8.2 µM [inhibitor, partial curve]"
N#CC(C#N)=C(N)/C(C#N)=C/c1ccc2[nH]ccc2c1,,"inconclusive: 56.2 µM [inhibitor, single point]"
Cc1ccc2nc3c(c(Nc4cccc(O)c4)c2c1)CCC3,,"inconclusive: 16.4 µM [inhibitor, single point]"
COc1ccc(S(=O)(=O)Nc2cccc(C(C)=O)c2)cc1Br,inactive: -16.5%,
CCN(C(=O)CCc1nc(-c2ccc(OC)cc2)no1)c1cc(OC)ccc1OC,,"inconclusive: 18.4 µM [inhibitor, single point]"
Oc1oc(-c2ccccc2Br)nc1/C=N/c1ccccn1,,"inconclusive: 29.1 µM [inhibitor, single point]"
CC(NCc1ccccc1OC1CCCC1)c1ccccc1 (stereo unspecified),,"inconclusive: 23.1 µM [inhibitor, single point]"
CCCCN(C)C(=O)c1nc2ccccn2c1CNCCCn1ncc2ccccc21,,"inconclusive: 29.1 µM [inhibitor, single point]"
CCCC(C(=O)NCCC(C)C)N(Cc1ccc(OC)cc1)C(=O)c1snc(C(N)=O)c1N (stereo unspecified),,"inconclusive: 23.1 µM [inhibitor, single point]"
CCOC(=O)c1ccccc1NC(=O)c1cccc([N+](=O)[O-])c1,,"inconclusive: 0.461 µM [inhibitor, full curve, poor fit]"
CC(=O)c1cccc(OCc2cc(C(=O)N(C)CCc3ccccn3)no2)c1,,"inconclusive: 14.6 µM [inhibitor, partial curve, poor fit]"
O=C(CCSc1nc(-c2ccc3c(c2)OCO3)cc(C(F)(F)F)n1)NCc1ccco1,,"inconclusive: 18.4 µM [inhibitor, single point]"
COc1ccc(N2CCN(c3ncnc4c3nnn4C)CC2)cc1,,"inconclusive: 5.17 µM [inhibitor, partial curve]"
CC1CCCC(C)N1CCCNC(=O)C1CCCN(c2ncnc3c2nc2n3CCCCC2)C1 (stereo unspecified),inactive: -3.51%,
CCCCNC(=O)O[C@@H]1C[C@@H]2CCN3C(=O)CCC[C@H]([C@H]1CC)[C@H]23,,active: 14.1 µM
CCOC(=O)CC1(NC(=O)c2cc(COc3cccc(OC)c3)on2)CCCCC1,,active: 23.1 µM
O=C(NCc1ccncc1)C1CCCN1S(=O)(=O)c1ccc(Cl)cc1 (stereo unspecified),inactive: -29.2%,
O=C(c1ccncc1)N1CCCC(N2CCN(c3cccc(C(F)(F)F)c3)CC2)C1 (stereo unspecified),,active: 16.4 µM
COc1ccc(CN2CCN(Cc3ccc4cc(F)ccc4n3)CC2CCO)c(C)c1C (stereo unspecified),,active: 16.4 µM
C/C(=N\NC(=O)c1cc(C)oc1C)c1ccc2ccccc2c1,,"inconclusive: 20.6 µM [inhibitor, single point]"
CC(/C=N/NC(=O)Cn1cnc2c1c(=O)n(C)c(=O)n2C)=C\c1ccccc1,inactive: -12.1%,
CCc1ccc(NC(=O)COc2coc(CN3CCN(c4ccccc4)CC3)cc2=O)cc1,,"inconclusive: 20.6 µM [inhibitor, single point]"
CN(CC(=O)NCCc1ccc(S(N)(=O)=O)cc1)Cc1ccc(Cl)cc1Cl,inactive: -26.5%,
CC(C)=CCC/C(C)=C/COc1c2occc2cc2ccc(=O)oc12,,"inconclusive: 33.5 µM [inhibitor, single point] and inconclusive: 18.4 µM [inhibitor, single point]"

SMILES,"activity change, negative = growth inhibition",Potency
CN(Cc1nc(-c2cnccn2)no1)Cc1cccc2ccccc12,inactive: -6.88%,
COc1cc(-c2cc(NC(C)=O)c3ncc(-c4ccc(C(C)=O)cc4)n3c2)cc(OC)c1OC,,active: 29.1 µM
CCCCC1CCC(C(=O)Nc2ccc(N3CCOCC3)cc2N2CCOCC2)CC1 (stereo unspecified),,"inconclusive: 8.2 µM [inhibitor, partial curve]"
CN(C)c1cc[n+](CC(=O)N2c3ccccc3Sc3ccccc32)cc1,,active: 2.06 µM
CC1CC(C)CN(C(=O)c2ccc(CSc3nc4ccncc4[nH]3)cc2)C1 (stereo unspecified),,"inconclusive: 16.4 µM [inhibitor, partial curve]"
N#Cc1c(C(F)(F)F)cc(-c2cccs2)nc1SCc1ccccc1F,,"inconclusive: 14.6 µM [inhibitor, single point]"
O=C(c1ccccc1)N1CCN(C(=S)NCc2ccco2)CC1,inactive: 17.5%,
Fc1cccc(Nc2cc(-n3cccn3)ncn2)c1,,active: 20.6 µM
CCN(C(C)=O)c1nc(CCl)cs1,,"inconclusive: 29.1 µM [inhibitor, single point]"
Clc1ccccc1CSc1nc(NCCc2ccccc2)c2ccccc2n1,,"inconclusive: 20.6 µM [inhibitor, single point]"
Cc1nn(-c2cc(C)c3ccccc3n2)c2c1C1C(C2)C1(C)C (stereo unspecified),,active: 18.4 µM
O=C(NCCCCCCCN1CCCCCCC1)C(C1CCCCC1)C1CCCCC1,,active: 13 µM
CCC(C)Nc1nc2c(c(=O)n(C)c(=O)n2C)n1Cc1ccc(F)cc1 (stereo unspecified),,active: 18.4 µM
COc1cccc(OC)c1OCCOc1ccc(C(=O)c2ccccc2)cc1,,"inconclusive: 25.9 µM [inhibitor, single point]"
O=C(CSc1ncc2c(n1)-c1ccccc1N(Cc1ccc(Cl)cc1)S2(=O)=O)c1ccccc1,,"inconclusive: 6.51 µM [inhibitor, single point]"
O=C(O)CCn1c2c(c3ccccc31)C[C@H](NS(=O)(=O)c1ccc(F)cc1)CC2,inactive: -1.16%,
Cc1nnc(NC(=O)CSc2nc(C3CCCCC3)nc3ccccc23)s1,,"inconclusive: 14.6 µM [inhibitor, partial curve]"
Cc1ccccc1NC(=O)C(=Cc1ccc(C(=O)O)cc1)C(=O)Nc1ccccc1C,,active: 9.2 µM
CCOc1ccccc1Nc1sc(C(=O)c2ccc(Cl)cc2)c(N)c1S(=O)(=O)c1ccccc1,inactive: -29.6%,
O=c1cc(C(F)(F)F)[nH]c2ccccc12,,"inconclusive: 20.6 µM [inhibitor, single point]"
FC(F)(F)c1ccc(Nc2nnnc3ccccc23)cc1,,"inconclusive: 2.91 µM [inhibitor, full curve]"
CCOc1ccc(NC(=O)Cn2nnc(C(=O)NCc3ccc4c(c3)OCO4)c2N)cc1,inactive: -2.36%,
COC(=O)c1cc(NC(=O)CN2CCc3cc4c(cc3C2)OCCCO4)cc(C(=O)OC)c1,,"inconclusive: 29.1 µM [inhibitor, single point]"
